Here are results for 167 variants from the RNAGym collection of RNA variant scans (doi:10.7554/elife.90254).

The source gives no read counts; variants with many changes may rest on few reads.

B1: LINE1-mini (parent)
chain: GGCAGAGCUCAACACAGCGUGGCAAAGUGGCUGUGGCUAGACUGCC

In this series the parent is B1. Description: self-cleavage, relative activity (ratio to wild type); higher = more cleavage; in vitro, sequencing; the parent is a self-cleaving ribozyme.
On to G5A C13A G40U, for which the self-cleavage was 0.05.
Consider G5A C10U C15A, for which the self-cleavage came out at 0.
For G5A A16G G21U G22A U28G the value was 0.07; for G5A C10G G21C C31A A41U, 0; for G5A G19C C37A C42U, 0.03.
For G5A C18U G29U G33C the value was 0.02.
The value for G5A G21A G22A C45G was 0.07.
As for G5A A24G G35C, the self-cleavage was 0.05.
Regarding G5A A25U C31A A39U, the self-cleavage is 0.03.
For G5A A26C U38A the value was 0.42.
The value for G5A G7A C18A C31U was 0.06.
Consider G5A G19U G27U, for which the self-cleavage came to 0.28.
For G5A C8G A16C C46A the value was 0.03; for G5A A14U U20G G35C, 0.1.
For G5A C13A G21C A39G the value was 0.06.
G5A A16U C45A: the self-cleavage was determined as 0.02.
The value for G5A C18G G36A C42U C45A was 0.02; that for G5A G7C C10U C13U was 0.09; that for G5A G27A G36A A41C was 0.04.
For G5A G19U C23A G27C C42A C46A the value was 0.02.
Take G5A C15U G22U: the self-cleavage was 0.16.
The value for G5A C15A G17U C18U U20A C37A was 0.02; that for G5A C8A C13U C15G U20A G21U was 0.32.
For G5A C31A U34A the value was 0.04; for G5A A14G U32C A39U C45G, 0.
The value for G5A A14U G19U C37U was 0.13.
Turning to G5A C23U G40U, the self-cleavage turned out to be 0.16.
For G5A G22C U28G U32A the value was 0.01; for G5A C13A A16C U43C, 0.03.
The value for G5A C37A G40C was 0.04.
For G5A G22U C23U A26G the value was 0.58; for G5A C18G A25U G27U, 0.08; for G5A G36U C45A, 0.03.
Regarding G5A A25G U28C, the self-cleavage is 0.47.
On to G5A A14G C15A A25U, for which the self-cleavage worked out at 0.04.
For G5A G7A G30A C31U U38C the value was 0.18; for G5A C31U C45A, 0.03.
For G5A G19C G30C U38C the value was 0.05.
G5A C8U C15G G22U G33U G36A G44C: the self-cleavage was 0.22.
For G5A C15G U20A G30U U32C the value was 0.01.
The value for G5A A16U G27C C37A was 0.1.
For G5A G17A C46U the value was 0.17; for G5A A24C G30A U32G G44A, 0.02; for G5A C10G A11G A26G G29A C37A U38G, 0.01.
Take G5A G17A G30U C31U: the self-cleavage amounted to 0.12.
The value for G5A G21A U34C was 0.03; that for G5A U9C G17U G30A C45A was 0.
The value for G5A C13A U38G was 0.
Take G5A C13U G19C A24C: the self-cleavage was 0.07.
As for G5A C15A A41G, the self-cleavage was determined as 0.03.
The value for G5A C8A U34G was 0.45.
For G5A C10A C18A U34C A39U C46U the value was 0.02; for G5A G7A G29A, 0.22.
For G5A A26U U28G the value was 0.17; for G5A A26U G35C A39C, 0.2; for G5A G21A G22C A24U G33C C42A, 0.05.
Regarding G5A C10A A26C G29U C31U, the self-cleavage came out at 0.03.
Consider G5A G17A G40U, for which the self-cleavage amounted to 0.06.
The value for G5A C10A C23U was 0.02; that for G5A G22A C31G was 0.04; that for G5A C13A A14G G35U was 0.07.
The value for G5A G22C A26G G30U was 0.02; that for G5A G30U G44U was 0.12.
For G5A A25C U38G G44U the value was 0.02; for G5A C31G U32A C37A, 0.02.
For the variant G5A G7C G36A A39G, the self-cleavage was found to be 0.06.
With G5A G33C U34A U43C C46G, the self-cleavage was found to be 0.04.
As to G5A G7A A12U G40A, the self-cleavage is 0.11.
For G5A G19U G22U the value was 0.15; for G5A G17U G19U G40U, 0.04; for G5A G7A C45U, 0.31.
For the variant G5A G17C C23A, the self-cleavage amounted to 0.06.
The value for G5A C13U G21C C46G was 0.03.
For G5A C13G A26G G29A C31U the value was 0.04; for G5A A24U C37A, 0.07.
For G5A C8U C10U C18G C45U the value was 0.04; for G5A G33C G40A G44C, 0.28; for G5A C10U G27U, 0.05.
For the variant G5A C15G C45U, the self-cleavage worked out at 0.08.
For G5A C13U G44A the value was 0.04.
As for G5A C13U C15G G30U, the self-cleavage was found to be 0.03.
For G5A A26G C31U the value was 0.07; for G5A C18G C23U, 0.06; for G5A C10G G22C G33U, 0.03.
For G5A G19C C23G the value was 0.12; for G5A A14C U20G C42U, 0.05.
The value for G5A C31U U34G G35U was 0.05; that for G5A G22U G30U U38C C45G was 0.14.
Consider G5A C23U G27U C45G, for which the self-cleavage came out at 0.14.
The value for G5A C8G G29U G30A was 0.07; that for G5A C8A C18A G27U was 0.18; that for G5A U9A U20C G30U G35A C37U U43A was 0.
For G5A G7A G35U A41U the value was 0.11; for G5A C15A U32A, 0.05.
The value for G5A A16U G17A G40U was 0.05; that for G5A A26C A39U was 0.07.
As for G5A A39U G40U, the self-cleavage was 0.12.
For G5A G7U C8G U20A the value was 0.15.
For G5A U9C A16G C18G C23A C37A the value was 0.01; for G5A U9A U20G G35U, 0.06; for G5A G17U C18U G35U U43G, 0.
For G5A G19U C23U C31G C45A the value was 0.18.
Regarding G5A A14G A16G C23G, the self-cleavage is 0.01.
For G5A C23U G30C C31G U32A the value was 0.05; for G5A A26C G30C A39U G44U, 0.06; for G5A C10U G30A, 0.07.
The value for G5A C13G U20A was 0.26; that for G5A A16U G27C C42U was 0.07.
The value for G5A C10U C18A C31G was 0.04; that for G5A C10G G19C A41G C42U was 0.01.
G5A A25C C31G G35U: the self-cleavage is 0.02.
For the variant G5A C23G G33U, the self-cleavage is 0.13.
For G5A G7A G17A U28C, the self-cleavage worked out at 0.24.
For G5A U9A U32A the value was 0.19; for G5A G19A A26C A39U, 0.02.
Turning to G5A C10U A14C A26C U34C, the self-cleavage was 0.03.
For G5A G17U C37A the value was 0.05; for G5A U9A A26U G27A U32A, 0.52; for G5A C31A G35C, 0.05.
With G5A C37U C45U, the self-cleavage was determined as 0.15.
The value for G5A G30C G44U was 0.08; that for G5A G7A C23U was 0.26; that for G5A G36C A39G was 0.01.
As to G5A C15U G19U C23U C37G, the self-cleavage turned out to be 0.02.
In the case of G5A G35U C37A, the self-cleavage turned out to be 0.06.
For G5A C15G G44U the value was 0.03; for G5A G22C G27A G30U U38A G44U, 0.02.
For G5A C15A U20G G30C G35A the value was 0.01; for G5A G35U G36C, 0.14; for G5A C10G A14U C15G, 0.04.
The value for G5A C8A G27U G30C was 0.2; that for G5A G33A C45G was 0.09; that for G5A U9G A39U G40C was 0.03.
For G5A U9A G22A U43A, the self-cleavage is 0.03.
For G5A G27U G33U the value was 0.11; for G5A C10A C31A C46A, 0.02.
For G5A C13A C15A G33C C42U U43C the value was 0.03; for G5A U9C G27A, 0.06.
For the variant G5A G22C G27U A41U C42A, the self-cleavage came to 0.03.
With G5A A25U C31A, the self-cleavage was 0.05.
On to G5A C15A A25G C42G G44A, for which the self-cleavage came to 0.03.
The value for G5A C18A C31U G35U C46U was 0.01; that for G5A G7A U9G A16C C18G U43C was 0.01.
For G5A G21A C31G the value was 0.02.
The value for G5A C18U G29A U34C C45A was 0.04; that for G5A C31U U34C was 0.02; that for G5A C10A C15A U20A was 0.08.
For G5A C18U G19A U20A, the self-cleavage came to 0.13.
For G5A A26G C46A, the self-cleavage was found to be 0.02.
For the variant G5A G7A G22A G27A, the self-cleavage was 0.27.
The value for G5A U9G A25C G27C G35A was 0.03.
The value for G5A C31G U32G U34A was 0.06; that for G5A A41U G44A C46U was 0.15.
Consider G5A U9C A39U, for which the self-cleavage worked out at 0.04.
For G5A C13U U28C C42U the value was 0.08; for G5A C10G U34G, 0.02; for G5A G17A G22A, 0.04.
Consider G5A C8A G17C G21C A41U, for which the self-cleavage amounted to 0.02.
On to G5A G29A C42G, for which the self-cleavage was 0.05.
For G5A C18U A25C the value was 0.17.
For G5A C13U G21A A26C the value was 0.14; for G5A C10A G19U G30U, 0.03.
For G5A C10G G30C G36U U38A the value was 0.01; for G5A G19U C46U, 0.02; for G5A C8A A12U G17C A25G G35A, 0.18.
Regarding G5A C10A G17A G30C G35C, the self-cleavage is 0.01.
For G5A G36A U38G the value was 0.03.
